Data from paper PMC4336329 (PLoS ONE, 2015).
The campaign covered roughly 310,000 compounds. About 2,200 (0.71%) showed an effect of 50% or more. The effect is printed as a negative number. The list shows a part of the results.

What follows are compounds tested against human ether-à-go-go-related gene (hERG) potassium channel (human, UniProt Q12809) (assay: primary screen, population patch clamp on CHO cells stably expressing hERG).
Sequence of human ether-à-go-go-related gene (hERG) potassium channel (Q12809 whole entry, looked up): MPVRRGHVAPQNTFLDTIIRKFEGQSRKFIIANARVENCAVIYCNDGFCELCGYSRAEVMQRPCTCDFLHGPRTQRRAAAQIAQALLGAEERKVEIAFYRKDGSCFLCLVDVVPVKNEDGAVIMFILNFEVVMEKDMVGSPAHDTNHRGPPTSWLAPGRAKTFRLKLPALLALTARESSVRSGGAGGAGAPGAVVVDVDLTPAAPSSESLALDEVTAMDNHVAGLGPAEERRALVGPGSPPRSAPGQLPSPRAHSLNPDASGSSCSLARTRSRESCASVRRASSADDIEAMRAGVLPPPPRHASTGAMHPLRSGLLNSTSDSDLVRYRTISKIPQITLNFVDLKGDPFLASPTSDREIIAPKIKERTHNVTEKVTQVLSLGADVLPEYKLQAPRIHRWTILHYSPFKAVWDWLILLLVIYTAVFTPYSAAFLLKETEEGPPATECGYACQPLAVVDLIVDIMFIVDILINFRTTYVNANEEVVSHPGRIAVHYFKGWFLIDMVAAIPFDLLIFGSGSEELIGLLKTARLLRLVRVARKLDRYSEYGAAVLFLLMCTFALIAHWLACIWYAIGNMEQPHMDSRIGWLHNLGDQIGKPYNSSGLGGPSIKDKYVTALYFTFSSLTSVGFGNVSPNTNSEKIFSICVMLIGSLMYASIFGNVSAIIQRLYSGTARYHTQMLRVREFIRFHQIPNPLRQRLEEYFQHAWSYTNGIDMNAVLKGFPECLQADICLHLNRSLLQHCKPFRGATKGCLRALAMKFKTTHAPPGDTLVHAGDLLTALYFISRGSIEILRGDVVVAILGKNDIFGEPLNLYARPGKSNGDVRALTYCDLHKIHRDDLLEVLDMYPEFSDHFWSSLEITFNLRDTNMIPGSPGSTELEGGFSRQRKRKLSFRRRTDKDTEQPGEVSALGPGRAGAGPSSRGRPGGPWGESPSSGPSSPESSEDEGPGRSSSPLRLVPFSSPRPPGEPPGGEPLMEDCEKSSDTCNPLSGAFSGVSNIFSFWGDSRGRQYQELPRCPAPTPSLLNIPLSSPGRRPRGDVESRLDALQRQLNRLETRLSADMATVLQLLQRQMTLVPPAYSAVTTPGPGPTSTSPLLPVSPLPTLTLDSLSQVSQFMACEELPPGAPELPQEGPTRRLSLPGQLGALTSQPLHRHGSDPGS

SMILES | hERG current change (%, negative = inhibition) at 1uM [%]
CCNC(=O)c1cccc(NC(=O)CC2SC(N3CCCCC3)=NC2=O)c1 (centres unmarked) | 18.1
COc1cc(OC)cc(C(=O)NCC(=O)NCC(c2ccco2)N2CCCCC2)c1 (centres unmarked) | 13.9
CCS(=O)(=O)Nc1ccc(C(=O)CC2(O)C(=O)Nc3ccc(Br)cc32)cc1 (centres unmarked) | 9.44
CC(=O)Nc1ccccc1NC(=O)c1ccccc1 | 11
Cc1coc2c1c(C)cc1oc(=O)c(CC(=O)N[C@H](C(=O)O)C(C)C)c(C)c12 | 10.1
CN(C(=O)CSc1nc2cc(C(=O)O)ccc2c(=O)n1Cc1ccccc1)C1CCS(=O)(=O)C1 (centres unmarked) | 17.6
O=C(NCCN1CCN(Cc2ccccc2)CC1)c1cc2c(=O)[nH]c3ccccc3c2s1 | 15.2
Cc1cc(NC(=O)CSC2=NCCS2)no1 | 7.5
O=C(NC1CCCCCC1)C1CCCN1S(=O)(=O)c1cccc2cccnc12 (centres unmarked) | 11.4
CCOC(=O)c1cc2c(nc1N)CCCC2 | 5.5
CCSc1nc2c(c(=O)[nH]1)C(c1cccs1)C(C(=O)OC)=C(C)N2 (centres unmarked) | 10.7
COCCOC(=O)C1=C(C)NC(=O)NC1c1ccc(OC(=O)c2ccco2)c(OC)c1 (centres unmarked) | 6.38
CC(=O)Nc1ccc(S(=O)(=O)N2CCN(C(=O)c3ccco3)CC2)cc1 | 18
CCOc1ccc(NS(=O)(=O)c2ccc(C(=O)N3CCCC3)cc2)cc1 | 12.2
CCn1cc(C(=O)C(F)(F)F)c2ccccc21 | -0.712
Cc1cccc(NC(=O)COc2cccc3c2CCN(Cc2ccccc2)C3=O)c1C | 0.47
Cc1cccc(NC(=O)CNC(=O)COc2ccc(C(=O)c3ccc(F)cc3)cc2)c1C | 1.92
c1cc(-c2nnc3n2CCC3)[nH]n1 | 15.6
O=C(NCCOc1ccccc1)c1cccc2c1C(=O)c1ccc(Cl)cc1S2(=O)=O | 8.02
CC1CCc2c(sc(NC(=O)COC(=O)c3ccc(NC(=O)CC#N)cc3)c2C#N)C1 (centres unmarked) | 0.557
COC(=O)c1c(-c2cccc(C)c2)csc1N | 17.1

SMILES | hERG current change (%, negative = inhibition) at 1uM [%]
COc1ccc(CCNC(=O)C(Sc2ccccn2)c2ccccc2)cc1OC (centres unmarked) | 7.19
COc1cc(/C=N/NC(=O)CN(Cc2ccco2)S(=O)(=O)c2ccccc2)ccc1O | 0.474
CC1(C)OC2OC(COC(=O)c3ccc([N+](=O)[O-])cc3)C3OC(C)(C)OC3C2O1 (centres unmarked) | 3.65
Cc1cc(NC(=O)CSc2ncnc3ccccc23)no1 | 15.8
CC(CN1CCNCC1)(NS(=O)(=O)c1ccccc1)c1ccccc1 (centres unmarked) | 14.9
O=C(Nc1ncccn1)c1ccc([N+](=O)[O-])o1 | 10.8
COc1cc(C2/C(=C(\O)c3ccc4c(c3)CC(C)O4)C(=O)C(=O)N2CCCn2ccnc2)ccc1O (centres unmarked) | 11.3
N#Cc1nc(Cc2cccc3ccccc23)oc1NCCN1CCCCC1 | -30.7
CCn1cc(/C=C(\NC(=O)c2ccccc2Cl)C(=O)N2CCOCC2)c2ccccc21 | 10.1
COc1ccc(C(=O)Nc2ccccc2N2CCN(C(=O)C(C)C)CC2)cc1Cl | -16.2
CCCNC(=O)Cn1c(=O)cnc2ccccc21 | 20.4
O=C(COC(=O)c1cc(-c2ccccn2)nc2ccccc12)Nc1ncc(C(F)(F)F)cc1Cl | 13
c1ccc2c3c([nH]c2c1)C(C1CCCCC1)N(Cc1ncc[nH]1)CC3 (centres unmarked) | -3.59
Cc1cc(C)nc(Sc2nc(Cl)nc(N(c3ccccc3)c3ccccc3)n2)n1 | 12.1
C[C@@H](C(=O)N[C@H](C(=O)O)c1ccccc1)n1nnc2ccccc2c1=O | 13.2
CCOC(=O)C(C)S(=O)(=O)c1ccc(C(F)(F)F)cn1 (centres unmarked) | 11.5
Cc1cccc(OCC(O)CN2CCNCC2)c1.Cl (centres unmarked) | 17.8
C=C(C)C(=O)NC1=NN(c2ccccc2)C(=O)C1 | 12.5
COc1ccc2[nH]cc(CCNC(=O)c3ccc4ccccc4n3)c2c1 | 11.1
CN(CC(=O)Nc1cccc(F)c1)C(=O)CN1C(=O)NC2(CCCCC2)C1=O | 3.28
Cc1ccc(C2CC(C(F)(F)F)n3nc(C(=O)NCc4c(C)nn(C)c4C)c(Cl)c3N2)cc1 (centres unmarked) | 9.37

SMILES | hERG current change (%, negative = inhibition) at 1uM [%]
Cc1ccc(NC(=O)CC2SC3=NCCCN3C2=O)c(C)c1 (centres unmarked) | 13.8
O=[N+]([O-])c1ccc(/C=N/n2c(-c3cccnc3)n[nH]c2=S)cc1 | 10.8
CCC1=C(OC(=O)N(CC)CC)N2C(=O)OC(=NCCOC)[C@]2(Cc2ccccc2)[C@H]2C1=CC[C@H]1C(=O)N(CC(=O)OC)C(=O)[C@H]12 | -2.4
CNS(=O)(=O)c1cccc(C(=O)OCc2csc(-c3ccccc3)n2)c1 | 1.31
COc1ccc(/C(O)=C2\C(=O)C(=O)N(Cc3ccco3)C2c2cc(OC)ccc2OC)cc1 (centres unmarked) | 15.6
O=C(O)CCn1c(Cc2ccccc2)nc2ccccc21 | 10.1
Cc1ccc(S(=O)(=O)N2CCOCC2)cc1NC(=O)COc1ccc2c(C)cc(=O)oc2c1 | 1.24
O=S(=O)(c1ccc(Cl)cc1)n1ccc(-c2cccc(OCc3c(F)cccc3Cl)c2)n1 | 13.7
C#CCOCCOCCOCCNc1nc(N2CCOCC2)nc(N2CCN(C(=O)CCCCCCCCCCNC(=O)[C@@H]([C@H](C)O)n3cc(C)nn3)CC2)n1 | 13.9
OCC1(Cc2ccc(F)cc2)CCCN(Cc2ccc(F)cc2Cl)C1 (centres unmarked) | 7.26
CC(C)N(C(=O)CSc1nnc(-c2ccc3c(c2)OCO3)n1C)C(C)C | 1.59
COc1cccc(OC)c1C(=O)NNC(=O)c1cccc(COc2ccc3c(c2)CCC3)c1 | 9.63
CCOC(=O)c1ccccc1NC(=O)CC(C)CC(=O)O (centres unmarked) | 12
COc1ccc(NC(=O)CN2CCN(c3c(C)cccc3C)CC2)cc1 | 6.72
COc1ccccc1/C=N/NC(=O)C(=O)N1CCN(c2ccccc2OC)CC1 | 3.98
Cc1ccc(-c2ccc(C#N)c(=O)n2CC(=O)N(C)C)cc1 | 7.14
CN1CCN(S(=O)(=O)c2ccc(Nc3cccc(Cl)c3)c([N+](=O)[O-])c2)CC1 | 1.38
COc1ccc(C(=O)N[C@H](C(=O)NCc2ccc(C)cc2)C(C)C)cc1 | 16.2
CCOC(=O)C1(Cc2ccc(Cl)cc2)CCN(C(=O)c2cnc(C)cn2)CC1 | -14.5
COc1ccc(NC2=C(C(C)=O)C(c3ccccc3)C(C(C)=O)C(C)(O)C2)cc1 (centres unmarked) | 1.11
COc1ccccc1OCCOC(=O)Nc1ccccc1 | 19.6

SMILES | hERG current change (%, negative = inhibition) at 1uM [%]
COC(=O)c1sc(-c2ccc(C(C)(C)C)cc2)cc1NC(=O)/C=C/C(=O)O | 2.94
CCOC(=O)c1[nH]c2ccc(OC)cc2c1NC(=S)N1CCN(c2ccccc2)CC1 | 7.6
O=C(NCc1ccccc1)/C(=C/c1ccc([N+](=O)[O-])cc1)NC(=O)c1ccco1 | -31
O=C(CCn1c(=O)oc2ccccc21)NC1=NCCS1 | 7.01
Cc1ccc(CNC(=O)C2CCCN(S(=O)(=O)N3CC(C)CC(C)C3)C2)cc1 (centres unmarked) | 9.66
O=C(CC12CC3CC(CC(Br)(C3)C1)C2)Nc1nncs1 | 14.1
COC(=O)CSc1nc2sc(C)c(C)c2c(=O)n1C | -8.37
O=C(c1cc(S(=O)(=O)NCc2ccco2)ccc1Br)N1CCOCC1 | -7.74
O=C(COC(=O)[C@@H]1CCCN1C(=O)c1cccs1)Nc1ccc(F)cc1[N+](=O)[O-] | -10
CCOC(=O)c1c(NC(=O)C2CCCCC2)sc2c1CCN(CC)C2.Cl | -0.948
Cc1ccccc1NC(=O)C1CCCN(S(=O)(=O)c2ccc3c(c2)C(C)(C)C(=O)N3C)C1 (centres unmarked) | 15.6
CN(C)S(=O)(=O)c1cccc(C(=O)N=C2N=C3C=CC(Cl)=CN3Cc3ccccc32)c1 | 4.52
O=C1NCCN1C(=O)c1ccco1 | 7.74
O=C(O)CSCC(=O)N1CCCN(c2nc3ccc(Cl)cc3s2)CC1 | 8.31
O=C(CSc1ncn[nH]1)Nc1ccc(OCc2ccccc2)cc1 | 4.29
O=[N+]([O-])c1cc(S(=O)(=O)N2CCCC2)ccc1NCCc1ccccc1 | 13.5
CCOC(=O)c1c(S(=O)(=O)NCC(=O)Nc2ccc(C)cc2)c(C)n(C)c1C | 12.4
COc1ccc(-n2c(=O)[nH]c3cc(C(=O)NCCc4ccccc4)ccc3c2=O)cc1OC | 11.4
O=C(Cn1nc(Cc2cccnc2)c2ccccc2c1=O)Nc1cc(F)ccc1F | 2.53
CCCC1(C(=O)OCC)NC(c2cc(OC)c(OC)c(OC)c2)C2C(=O)N(CC)C(=O)C21 (centres unmarked) | 16.1
